Results taken from PubChem BioAssay AID1508642 (National Center for Advancing Translational Sciences (NCATS), 2021).
Hit rate of the full screen: of about 43,000 compounds, about 200 (0.47%) were called active. Roughly 12% stayed inconclusive and do not appear here. Calls come from the whole dose curve; as a rule, active = well fitted cell-killing curve with a large enough effect; inconclusive = small, poorly fitted or top-dose-only effect, or effect the other way; inactive = flat fitted curve, though single readings scatter. The list shows a part of the results.

assay: Cell viability qHTS assay in S16 Pmp22-F2sN cells; details: S16 Pmp22-F2sN Schwann cells viability, CellTiter-Glo, 24 h; series mostly up to 57.5 µM; activity change, negative = cytotoxicity: at the top concentration; note: nearly all actives have a fitted effect of over 65% in size
Method in brief: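 Used to flag compounds lowering reporter output through toxicity, this quantitative HTS measures ATP-based CellTiter-Glo luminescence in S16 Pmp22-F2sN Schwann cells after 24 h compound exposure at 37C.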
% is set by controls: 0 for no effect and ±100 for the full control effect.

SMILES | activity change, negative = cytotoxicity
COc1ccc(Cl)cc1NC(=O)Cn1ccn(Cc2ccc(C)cc2)c(=O)c1=O | inactive: -18.2%
O=C(c1cc2c(=O)oc3ccccc3c2s1)N1CCN(c2cccc(Cl)c2)CC1 | inactive: 5.22%
Cc1ccc(C)c(NC(=O)Cn2cc(C(=O)c3ccncc3)c(=O)c3cc(F)ccc32)c1 | inactive: 1.29%
CCOc1ccc(CNC(=O)c2cc3oc4ccccc4c3n2C)cc1 | inactive: -2%
COc1ccc(NC(=O)Cn2cnc3sc(C)c(S(=O)(=O)N4CCN(C)CC4)c3c2=O)cc1OC | inactive: 0.173%
O=C(CSc1nc2c(c(=O)[nH]1)CCC2)Nc1ccccc1F | inactive: 0.365%
CN(C)c1ccc(CNc2nc(-c3ccco3)nn2S(=O)(=O)c2ccc3ccccc3c2)cc1 | inactive: 6.67%
Cc1c(Cl)ccc2sc(N3CCN(C(=O)c4ccco4)CC3)nc12 | inactive: -6.7%
Cc1ccc(CCNC(=O)CN(c2ccc(C)cc2)S(=O)(=O)c2c(C)noc2C)cc1 | inactive: -4.61%
COc1ccccc1CNc1ccc(-c2nc(C(C)C)no2)cc1[N+](=O)[O-] | inactive: -27.7%
O=C(Nc1ccc(F)cc1)[C@H](Cc1ccccc1)N1Cc2ccccc2C1=O | inactive: -17.3%
CC(C)CCOc1ccc(C(=O)Nc2sc3c(c2C#N)CCCCC3)cc1 | inactive: 0.706%
Cn1nnnc1SCCCNCc1cccc(OCc2ccc(Cl)cc2)c1 | inactive: -28.3%
Cc1ccccc1-c1nc(CNC(=O)Nc2ccccc2)c(C)o1 | inactive: 6.08%
Cc1ccc(C(=O)Nc2ccc(Cl)c(-c3nc4ncccc4o3)c2)c(C)c1 | inactive: -4.82%
CCOC(=O)C1CCN(C(c2ccccc2OC)c2c(O)cc(C)n(CCOC)c2=O)CC1 (stereo not drawn) | inactive: -7.71%
COc1cccc(-c2nc(-c3ccc(-c4ccccc4)nc3OC)no2)c1 | inactive: 0.246%
Cc1ccc(OC(=O)c2cc(-c3ccc4c(c3)OCCO4)on2)c(C)c1 | inactive: 1.88%
Cc1ccc(Cn2cccc2C2=NC(C)(C)CO2)cc1 | inactive: 1.22%
COc1ccccc1OC(C)C(=O)NCC1(N2CCOCC2)CCCCC1 (stereo not drawn) | inactive: 1.6%
COc1ccc(NC(=O)CCNS(=O)(=O)c2cccc3nonc23)cc1 | inactive: -2.19%
CCCCOc1ccc(-c2nonc2NC(=O)c2ccco2)cc1 | inactive: -5.53%
CCCC(=O)N1c2ncnn2C2(CCCCC2)[C@@H]2CCCC[C@@H]21 | inactive: -16.3%
COc1ccc(N2CCN(C(=O)Cn3cnc4nc5c(cc4c3=O)CCCC5)CC2)cc1 | inactive: -14.7%
Cc1ccc(S(=O)(=O)NCCc2nnc3ccc(SCc4ccccc4C)nn23)cc1 | inactive: -1.42%

SMILES | activity change, negative = cytotoxicity
COc1ccc(/C=C\c2onc(C)c2S(=O)(=O)N2CCC(C(=O)Nc3ccccc3OC)CC2)cc1 | inactive: -1.25%
CCOC(=O)c1cccc(NC(=O)c2cc(CN3CCCC3)on2)c1 | inactive: 13%
Cc1cc(C)c2oc(C(=O)Nc3sc4c(c3C(=O)NCc3ccco3)CCC4)cc(=O)c2c1 | inactive: 4.51%
Cc1ccc(C)c(CN2C(=O)c3ccccc3S(=O)(=O)c3ccc(C(=O)Nc4ccccc4C(F)(F)F)cc32)c1 | inactive: 10%
CN1CCN(C(=O)C(=O)Nc2c3c(nn2-c2ccc(F)cc2)CSC3)CC1 | inactive: 6.78%
Cc1ccc(NC(=O)/C=C/c2ccccc2)c(Br)c1 | inactive: 19.6%
COc1ccc(-c2nc3scc(CCNS(=O)(=O)c4c(C)noc4C)n3n2)cc1 | inactive: 14.7%
Cc1ccccc1CNC(=O)C1CCN(c2nnc(C)c3c(C)n(-c4ccccc4)nc23)CC1 | inactive: -2.69%
CCc1ccc(-c2nc3ccc(Br)cc3c(C(=O)O)c2C)s1 | inactive: 10.2%
O=C(Cn1c(=O)n(Cc2ccc3c(c2)OCO3)c(=O)c2oc3ccccc3c21)Nc1ccccc1 | inactive: 0.866%
CCc1nnc(NC(=O)c2cc(=O)c3cc(C)c(C)cc3o2)s1 | inactive: -0.709%
COc1cc(-c2noc(-c3cc4cc(F)ccc4oc3=O)n2)cc(OC)c1OC | inactive: 16.4%
CN1C(=O)C2(c3ccccc31)N(c1ccccc1)C(=O)CS2(=O)=O (stereo not drawn) | inactive: -5.1%
CCn1c(C(=O)NCc2cccc(Br)c2)cc2oc3ccccc3c21 | inactive: 5.88%
O=C(CSc1cn(CC(=O)N2CCCCC2)c2ccccc12)Nc1ccccc1F | inactive: -9.89%
COc1ccccc1-c1noc(CSc2nc3ccc(C)cc3[nH]2)n1 | inactive: -18.6%
COc1ccc(C(=O)c2cn(Cc3ccc(C)cc3)c3cc4c(cc3c2=O)OCO4)cc1 | inactive: -23.1%
CCOc1ccccc1NC(=O)CSc1nccn1-c1ccc(Cl)cc1 | inactive: 13.2%
Cc1c(Cl)cccc1NC(=O)CCn1c(=O)c2cccn2c2ccccc21 | inactive: 2.14%
Cc1ccc2c(CC(=O)Nc3ccccc3C(F)(F)F)coc2c1C | inactive: 0.553%
CN1CCN(C(CNC(=O)C(=O)Nc2ccc(F)cc2F)c2ccc3c(c2)OCO3)CC1 (stereo not drawn) | inactive: 8.6%
CCOc1ccc(CCNC(=O)Cn2nnc(-c3ccc(OC)c(OC)c3)n2)cc1OCC | inactive: 4.98%
CC(C)Oc1ccc(CNS(=O)(=O)c2cnc(N)nc2)cc1 | inactive: 9.99%
O=C(NC1CCCCC1)c1ccc2c(c1)N(Cc1ccccc1)C(=O)c1ccccc1S2 | inactive: 3.06%
CCCc1nn2c(=O)cc(COC(=O)c3ccc(NC(=O)C(C)Oc4ccccc4)cc3)nc2s1 (stereo not drawn) | inactive: 0.0044%

SMILES | activity change, negative = cytotoxicity
CCCCNc1nc(Oc2ccc(=O)n(C)n2)nc(N(C)C)n1 | inactive: 0.56%
CSc1nc(-c2ccc(F)cc2)nc2c1Cc1c(CO)cnc(C)c1O2 | inactive: -0.508%
COc1cc(NC(=O)c2nnn(CC(=O)Nc3ccccc3)c2N)cc(OC)c1 | inactive: 10.2%
Cc1cc2c(cc1S(=O)(=O)N1CCC(C)CC1)OCC(=O)N2 | inactive: 6.46%
Cc1c(C(=O)NCc2ccc(N(C)C)cc2)oc2c1-c1nn(Cc3cccc(Cl)c3)cc1CC2 | inactive: -7.2%
O=C(COc1ccccc1)Nc1ccc(S(=O)(=O)N(Cc2ccccc2)c2ccccc2)cc1 | inactive: 1.42%
COC(=O)CNC(=O)C(Cc1ccccc1)NS(=O)(=O)c1ccc2c(c1)c(=O)n(C)c(=O)n2C (stereo not drawn) | inactive: 8.08%
Cc1ccc(NC(=O)Cn2c(=O)n(CCCCCC(=O)NCc3ccc(F)cc3)c(=O)c3sccc32)c(C)c1 | inactive: -18.2%
Cc1c(Cl)cccc1NC(=O)c1cnc2sc(N3CCCC3)nn2c1=O | inactive: 4.59%
COCCN1Cc2cccc(C(=O)Nc3ccc(C)cc3C)c2C1=O | inactive: -0.41%
O=S(=O)(c1ccc2ccccc2c1)n1nc(-c2ccco2)nc1NCc1cccc(Cl)c1 | inactive: -2.4%
Cc1ccc(CNC(=O)c2ccc3c(c2)N(Cc2ccccc2F)C(=O)c2ccccc2S3(=O)=O)cc1 | inactive: 17.4%
COc1ccc(S(=O)(=O)c2cn(C)c3cc(N4CCCC4)c(F)cc3c2=O)cc1 | inactive: -11.6%
COc1cccc(CNC(=O)c2cnc(N3CCCC3)nc2C)c1 | inactive: 5.16%
Cc1ccc(-c2nnc(SCC(=O)N3CCc4ccccc43)o2)cc1 | inactive: 6.88%
CCCC12CN3CC(CCC)(CN(C1)C3c1c[nH]c3ccccc13)C2=O (stereo not drawn) | inactive: -1.06%
COc1ccc(-c2nc(-c3ccccc3)c(-c3ccccc3)[nH]2)cc1Br | inactive: 3.87%
CCn1cc(C(=O)OCC(=O)Nc2cc(C)cc(C)c2)c(=O)c2ccc(C)nc21 | inactive: -0.946%
COC(=O)c1scc(-c2ccc(C)cc2)c1S(=O)(=O)Nc1cccc(C(F)(F)F)c1 | inactive: -17.4%
COc1ccc(CCNC(=O)c2cc(-c3ccccc3)nc3ccccc23)cc1OC | inactive: 3.56%
CCC(=O)N1CCc2cc(S(=O)(=O)NCCC(=O)Nc3ccc(OC)c(Cl)c3)ccc21 | inactive: -10.1%
CCc1nnc2c(NCc3ccccc3OC)nc3ccccc3n12 | inactive: 6.68%
CC(C)c1nnc(N2C(=O)c3oc4ccccc4c(=O)c3C2c2cccc(O)c2)s1 (stereo not drawn) | inactive: 2.85%
CCOc1ccc(CC(=O)Nc2nnc3n2CCS3)cc1 | inactive: -2.11%
COC(=O)c1sc2cccc(F)c2c1S(=O)(=O)Nc1cc(OC)cc(OC)c1 | inactive: -10.1%

SMILES | activity change, negative = cytotoxicity
O=C(CSc1nc2ccccc2c(=O)n1CCC(=O)NC1CCCCC1)Nc1ccccc1Cl | inactive: 2.93%
Cc1nn(CCCC(=O)NCc2ccccc2)c(=O)c2nn(-c3ccccc3)c(C)c12 | inactive: -0.748%
Cn1c(=O)[nH]c(=O)c2c1nc1n(CCO)c(-c3ccccc3)cn21 | inactive: 1.54%
O=C(CSc1nc2c(cnn2-c2ccc(F)cc2)c(=O)[nH]1)Nc1ccc(Br)cc1 | inactive: -4.22%
CCCCOc1ccc(-c2cc3c(=O)n(CC(=O)Nc4ccc(Cl)cc4Cl)ccn3n2)cc1 | inactive: 0.663%
Cc1ccc(-c2nn(CC(=O)NC3CCCCC3)c3c2cnc2ccc(F)cc23)cc1C | inactive: -4.03%
CCOc1cccc2cc(-c3nnc(Nc4ccc(F)c(Cl)c4)s3)c(=O)oc12 | inactive: 6.18%
COc1ccc(C2C(C(N)=O)=C(C)Nc3nc(-c4ccccc4Cl)nn32)cc1 (stereo not drawn) | inactive: -16.7%
Cc1[nH]c2ccccc2c1C(=O)C(=O)NC1CC(=O)N(c2cccc(F)c2)C1 (stereo not drawn) | inactive: 21.4%
Cc1ccc2oc(C(=O)N(Cc3ccccc3F)C3CCS(=O)(=O)C3)c(C)c2c1 (stereo not drawn) | inactive: -2.79%
COc1cccc(NC(=O)CC2C(=O)OCCN2Cc2ccccc2)c1 (stereo not drawn) | inactive: -19.8%
Cc1cccc(C)c1Nc1c(-c2ccc(Cl)s2)nc2ncccn12 | inactive: -12.5%
COc1cccc(CNC(=O)c2cc(=O)[nH]c3ccc(S(=O)(=O)N4CCCCC4)cc23)c1 | inactive: -0.592%
CC(C)C(=O)OC1=CN(Cc2ccccc2)S(=O)(=O)c2ccccc21 | inactive: -2.91%
COc1ccccc1CNC(=O)c1ccc2c(c1)sc1nc(-c3ccc(F)cc3)cn12 | inactive: -2.01%
CCOc1ccc(CNC(=O)c2c(C)nn(-c3ccc(F)cc3)c2-n2cccc2)cc1 | inactive: 0.0231%
CC(=O)Nc1nonc1-c1nnc(SCC(=O)Nc2ccc(C)cc2C)n1C | inactive: 1.21%
COc1ccc(NC(=O)[C@@H](c2ccccc2)N2Cc3ccccc3C2=O)cc1OC | inactive: -8.1%
O=C(Nc1ccc(SC(F)F)cc1)c1cc(-c2ccc3c(c2)OCCO3)on1 | inactive: -9.71%
Cc1noc(Cn2c(=O)c3cc4c(cc3n(CC(=O)Nc3cccc(Cl)c3)c2=O)OCO4)n1 | inactive: -17.7%
Cc1ccc(CSCC(=O)N2CCN(c3cc(Cl)ccc3C)CC2)cc1 | inactive: -1.11%
Cc1ccc(-n2nc(C(=O)NCCN(C)C)c(=O)n(C)c2=O)cc1 | inactive: 11%
CC1CCc2c(sc(NC(=O)COc3ccccc3)c2C(=O)Nc2ccccc2Cl)C1 (stereo not drawn) | inactive: -1.77%
